Among the data in PubChem BioAssay AID488969 (Vanderbilt High Throughput Screening Facility, 2010) are z-score values, retold here.

Whole data set: some 110,000 compounds, median “z-score” near -0.1, cut for the highest 2% near 2. The list shows a part of the results. Activity calls are given as the source filed them.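 How the source made its calls: active means z-score in the third read window above 3 or below -3; inactive means the rest.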

For the assay, the target named is Metabotropic glutamate receptor 8 (Rattus norvegicus) (UniProt P70579). As to the kind of experiment: rat mGluR8 modulators via GIRK flux, primary screen, cell-based, thallium flux, HTS (AID 488969). As to conditions: HEK293 rat mGluR8, GIRK (G protein-gated inwardly rectifying potassium channel) thallium flux, FluoZin2; at 10 µM; stronger effect = higher value; submaximal glutamate (EC20) added with thallium.
Sequence of UniProt P70579 (P70579 whole entry, looked up): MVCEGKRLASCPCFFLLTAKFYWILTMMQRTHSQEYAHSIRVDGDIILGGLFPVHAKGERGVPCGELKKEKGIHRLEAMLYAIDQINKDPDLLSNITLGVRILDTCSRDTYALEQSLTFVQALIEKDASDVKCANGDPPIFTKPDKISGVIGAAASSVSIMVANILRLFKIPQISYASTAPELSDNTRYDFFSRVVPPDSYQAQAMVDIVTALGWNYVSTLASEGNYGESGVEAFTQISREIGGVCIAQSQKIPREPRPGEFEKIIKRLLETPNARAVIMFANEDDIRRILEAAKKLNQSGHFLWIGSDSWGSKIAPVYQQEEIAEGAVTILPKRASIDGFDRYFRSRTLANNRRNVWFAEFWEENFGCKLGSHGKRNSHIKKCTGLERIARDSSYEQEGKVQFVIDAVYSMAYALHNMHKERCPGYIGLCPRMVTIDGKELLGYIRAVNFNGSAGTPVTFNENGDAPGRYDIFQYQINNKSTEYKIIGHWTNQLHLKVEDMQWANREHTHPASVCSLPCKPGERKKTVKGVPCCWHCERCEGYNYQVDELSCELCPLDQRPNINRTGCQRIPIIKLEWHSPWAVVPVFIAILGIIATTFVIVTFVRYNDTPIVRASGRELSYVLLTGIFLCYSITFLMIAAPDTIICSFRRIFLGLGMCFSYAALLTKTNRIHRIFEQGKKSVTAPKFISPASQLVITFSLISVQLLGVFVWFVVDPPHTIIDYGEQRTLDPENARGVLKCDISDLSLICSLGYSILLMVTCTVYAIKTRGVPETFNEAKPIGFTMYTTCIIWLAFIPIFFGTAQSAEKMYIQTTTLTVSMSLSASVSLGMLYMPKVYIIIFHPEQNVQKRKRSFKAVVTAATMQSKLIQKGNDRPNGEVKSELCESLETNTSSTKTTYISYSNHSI
Take `CSc1cccc(NC(=O)C2CCCN(S(=O)(=O)c3ccc(F)cc3)C2)c1` (stereo not drawn): the z-score was -0.0615.

In turn, `S=c1[nH]nc(Cc2ccccc2)n1Cc1ccco1` returned a z-score of 0.201.

In the case of `CC(/C=N/NC(=O)c1ccc2nc(C)[nH]c2c1)=C\c1ccccc1`, the z-score stood at 1.15.

Turning to `O=S(=O)(NCc1ccccc1Br)c1cccs1`, the z-score turned out to be 0.562.

In turn, `O=C1CSC(=O)N1CC(O)COc1ccc(Cl)cc1` (stereo not drawn) registered a z-score of 1.4.

`CCc1[nH]nc2c1C1(CCN(C(=O)c3ccccc3)CC1)C(C#N)=C(N)O2` had a z-score of -0.41.

On to `Clc1ccc(CSc2nnc(-c3ccc4c(c3)OCO4)o2)cc1`, for which the z-score was -0.0552.

Consider `CCOc1ccccc1N1CCN(C(=O)c2c(-c3ccccc3Cl)noc2C)CC1`, for which the z-score stood at 0.339.

`Oc1ccccc1N1CCN(C(=S)NCCc2ccccc2)CC1` gave a z-score of -0.164.

With `Cc1nn(Cc2c(F)c(F)c(F)c(F)c2F)c(C)c1NC(=O)c1c([N+](=O)[O-])c(C)nn1C`, the z-score was -0.145.

The compound `CCCCn1c2c(c3ccccc31)CCc1nonc1-2` had a z-score of -0.191.

Take `O=C(CSCc1nc2ccccc2[nH]1)Nc1ccccc1`: the z-score is -0.126.

In turn, `CC(=O)NCCC(=O)Nc1sc2c(c1-c1nc3ccccc3[nH]1)CCCC2` had a z-score of -0.454.

In the case of `O=C(CNC(=O)c1ccccc1F)N/N=C/c1cc(Br)ccc1OCc1ccccc1`, the z-score is -0.402.

For the compound `C(=N\c1ncnc2sccc12)/NOCc1ccccc1`, the z-score stood at 0.0507.

On to `CCCCC(=O)Nc1sc(C(=O)N(CC)CC)c(C)c1C(=O)OC`, for which the z-score was -0.324.

As for `CC1(C)CC(=O)C2=C(C1)OC(N)=C(C#N)C2C1C=CCCC1` (stereo not drawn), the z-score is -0.228.

`COc1ccc(OC)c(NC(=O)COC(=O)CCCN2C(=O)c3ccccc3C2=O)c1` displayed a z-score of -0.258.

For the compound `Cc1cc(C(=O)OCC(=O)NCCc2ccccc2)c(C)o1`, the z-score is -0.313.

`CC(C)(C)C(=O)CN1C(=O)C2(OCCO2)c2ccccc21` showed a z-score of 0.508.

The compound `O=C(N/C(=C/c1cccnc1)C(=O)N1CCOCC1)c1ccccc1Br` gave a z-score of 1.4.

The compound `COc1ccc(-c2cc(-c3ccccc3)nc(SCC(=O)Nc3nccs3)c2C#N)cc1` yielded a z-score of -0.519.

On to `CCCNS(=O)(=O)c1ccc(CCC(=O)N2CCN(c3ccc(OC)cc3)CC2)cc1`, for which the z-score was -0.229.

Compound `CC(Sc1ccc(Cl)cc1)C(=O)Nc1ccc(S(=O)(=O)N2CCOCC2)cc1` (stereo not drawn) had a z-score of 0.967.

As for `C/C(=N/NC(=O)CNC(=O)c1ccccn1)c1ccccc1`, the z-score stood at 0.00855.

In turn, `Cc1ccc(C2NNC(=O)C2NC(=O)c2ccccc2)cc1` (stereo not drawn) registered a z-score of 0.059.

`CCn1c(CNC(=O)COc2ccc(C(C)C)cc2)nnc1SCC(=O)Nc1ccc(F)cc1` yielded a z-score of -0.592.

As to `CN(C)CCN1CCc2ccccc21`, the z-score was 1.3.

In turn, `Cc1nn(-c2ccccc2)c(C)c1NC(=O)CCl` registered a z-score of -0.0162.

As for `COCCNC(=O)c1c(N)n(CCC2=CCCCC2)c2nc3ccccc3nc12`, the z-score was -0.122.

As for `CN1C(=O)/C(=C/c2cc(N=Nc3ccccc3)ccc2O)SC1=S`, the z-score amounted to 1.04.

Turning to `O=C(NCc1ccco1)c1cc2n(n1)C(C(F)(F)F)CC(c1ccc(F)cc1)N2` (stereo not drawn), the z-score was -0.0373.

For `Cc1cc(NS(=O)(=O)c2ccc(-c3ccccc3)cc2)no1`, the z-score is -0.115.

Take `c1ccc2cc3[nH]c(CN4CCOCC4)nc3cc2c1`: the z-score was 0.139.

Regarding `CCC1SC2=NCN(c3ccccc3)CN2C1=O` (stereo not drawn), the z-score is -0.157.

The compound `COC(=O)CC1COc2ccccc2N1C(=O)c1cccc(Cl)c1` (stereo not drawn) showed a z-score of -0.076.

`Cc1cc(C=O)c(C)n1-c1ccc(Oc2ccc([N+](=O)[O-])cn2)cc1`: the z-score is -0.148.

For `COC(=O)c1[nH]c2cccc(OC)c2c1NC(=O)CN1CCOCC1`, the z-score was 0.382.

In turn, `O=C(NCc1cccs1)C(=O)NCC1OCCCN1S(=O)(=O)c1ccccc1` (stereo not drawn) came in with a z-score of -0.219.

Turning to `Cc1oc2ccc(O)cc2c1C(=O)c1ccc(Cl)cc1`, the z-score was -0.696.

Compound `COc1ccc(N(C(=O)CNC(=O)c2ccco2)C(C(=O)NC2CCCCC2)c2ccco2)cc1` (stereo not drawn) gave a z-score of 0.332.

The compound `O=c1cc(NCc2ccccc2)c2ccccc2o1` registered a z-score of -0.0485.

`O=C(NCCc1ccccn1)c1ccc(COc2ccccc2)o1` gave a z-score of -0.191.

As for `COc1ccc(NC(=S)N(CCc2nc3cc(C)c(C)cc3[nH]2)Cc2cccnc2)cc1`, the z-score worked out at 0.0659.

Compound `Cc1ccc(/C=C/S(=O)(=O)N2CCC(C(=O)O)CC2)cc1` registered a z-score of -0.628.

`CN1C(=O)C(O)(C2OC(C)(C)CCC2=O)c2ccccc21` (stereo not drawn): the z-score is -0.0799.

Consider `CCN(CC)S(=O)(=O)c1ccc(N2CCCC2)c(NS(=O)(=O)c2ccccc2)c1`, for which the z-score is -0.405.

On to `CCC(=O)Nc1ccc(Cl)c(NC(=O)c2ccc([N+](=O)[O-])cc2)c1`, for which the z-score is -0.0166.

Take `CCOc1ccc(Cl)cc1S(=O)(=O)n1cnc2ccccc21`: the z-score was 0.0674.

Regarding `COC(=O)CC1=C(C(=O)OC)C(c2ccc3c(c2Cl)OCO3)C(C#N)=C(N)O1` (stereo not drawn), the z-score was -1.19.

Compound `COc1cc2c(cc1OC)CN(Cc1nc3ccsc3c(=O)[nH]1)CC2` registered a z-score of -0.379.

Take `COc1ccccc1NC(=O)Nc1ccc2c(c1)nnn2C`: the z-score is -0.194.

The compound `N#CC1=C(S)N(c2ccccc2)C(c2ccc(-c3ccccc3Cl)o2)NC1=O` (stereo not drawn) showed a z-score of -0.702.

Compound `Nc1c(Cl)cc2c(c1Oc1ccccc1)C(=O)c1ccccc1C2=O` gave a z-score of -1.52.

In turn, `COC(=O)c1ccc(N2C(=O)c3cc(N4CCOCC4)c([N+](=O)[O-])cc3C2=O)cc1` had a z-score of -0.238.

In the case of `CCCCC(=O)NC(NC(=O)CCCC)c1ccc(OCC(C)C)c(OC)c1`, the z-score is -0.277.

Take `O=C(COC(=O)CCc1ccc(S(=O)(=O)N2CCOCC2)cc1)Nc1ncc(C(F)(F)F)cc1Cl`: the z-score is -0.00567.

On to `O=C(NC(=S)Nc1nc2ccccc2s1)c1ccco1`, for which the z-score is active: 8.72.

`NS(=O)(=O)c1ccc(N2N=C(c3ccccc3)CC2c2ccc(F)cc2)cc1` (stereo not drawn) registered a z-score of -0.361.

Take `COc1ccc(CCNc2nnc(C)c(=O)[nH]2)cc1OC`: the z-score was 0.279.

`CCOC(=O)CC(NS(=O)(=O)c1ccc(NC(C)=O)cc1)c1ccc(OCC)cc1` (stereo not drawn) came in with a z-score of 1.12.

Compound `Cc1ccc(OCC(=O)NN=C2c3ccccc3-c3ccccc32)cc1` showed a z-score of -0.617.

As for `CC(=O)c1c(C)[nH]c(C(=O)N2CCN(c3ccc(F)cc3)CC2)c1C`, the z-score was -0.0203.

Compound `NNC(=O)c1cc2ccccc2cc1O` had a z-score of 0.846.

With `O=C(CSc1ccc2nnc(-c3ccccc3)n2n1)N1CCN(c2ccccc2)CC1`, the z-score is -0.868.

For `CCCCNC(=S)NNC(=O)CCn1nc(C)c(Br)c1C`, the z-score was 0.0745.

Take `Cc1cc(NC(=O)COC(=O)c2cccc(S(=O)(=O)N3CCOCC3)c2)no1`: the z-score came out at 0.324.

As for `Cc1cc(C)c(Nc2cc(S(=O)(=O)O)c(N)c3c2C(=O)c2ccccc2C3=O)c(C)c1`, the z-score is -0.54.

Turning to `S=C(NCCCn1ccnc1)NC1CCCCC1`, the z-score came to 0.091.

On to `CCc1ccccc1NC(=O)c1cc(-c2cccc(O)c2)on1`, for which the z-score came to 0.482.

`Cc1cc(C)nc(NC(=NCCc2c[nH]c3ccccc23)NC(=O)Nc2ccccc2)n1` returned a z-score of -0.584.

On to `CCCCOc1ccc(C(=O)CCNC(C(=O)O)C(C)CC)cc1` (stereo not drawn), for which the z-score stood at 0.301.

Compound `O=C1NC2(CCCC2)N=C1c1ccc(F)cc1` came in with a z-score of -0.119.

Regarding `CC1CCN(C(=O)CSc2nncn2C)CC1`, the z-score amounted to 0.375.

Take `O=C(NCc1cccnc1)c1ccc(CN2CCc3ccccc3C2)cc1`: the z-score is -0.0622.

`CCN(CC)C(=O)COc1ccc2oc(C)c(C(=O)OC)c2c1`: the z-score is active: 3.23.

With `CCCCN1C(=O)c2ccccc2C1C(=O)NC1CCCC1` (stereo not drawn), the z-score was active: 3.2.

For `O=C(Nc1cccn(Cc2c(Cl)cccc2Cl)c1=O)c1ccccc1Cl`, the z-score was -0.112.

Take `Cc1cc(Cl)ccc1NC(=O)CSc1nnc(Cc2cccs2)n1Cc1ccco1`: the z-score was -0.988.

Take `Cc1nc(CN2CCN(C(=O)c3ccc(C(C)(C)C)cc3)CC2)cs1`: the z-score came out at 0.36.

As for `Cc1cccc(NC(=O)c2ccc(OC3CSC3)cc2)c1`, the z-score was -0.335.

Compound `COc1ccc(C2N(c3ccc(OC)cc3)C(=O)C3CCCN32)cc1` (stereo not drawn) gave a z-score of -0.229.

Compound `O=C1NN(c2ccccc2)C(=O)/C1=C/c1cccs1` showed a z-score of -0.409.

`Cc1nc(Nc2ccc(F)cc2)[nH]c(=O)c1CCC(C)C` returned a z-score of -0.00139.

As for `CC(C)(Oc1ccc(Cl)cc1)C(=O)Nc1cccnc1`, the z-score stood at 0.239.

For the compound `CC/C(=N\NS(C)(=O)=O)c1ccccc1`, the z-score was 0.273.

`CC[n+]1c(/C=C(\C)Nc2ccccc2)sc2ccccc21` displayed a z-score of -0.486.

Regarding `Cc1ccc2nc(NCCCO)nc(-c3ccccc3)c2c1`, the z-score is -0.775.

Regarding `COc1ccc(C)cc1S(=O)(=O)N1CCN(c2cccc(C(F)(F)F)c2)CC1`, the z-score was -0.488.

Consider `Cc1c(Cl)cccc1Nc1nc(N)nc(CSc2ncccn2)n1`, for which the z-score was -0.291.

Take `C1=C(c2ccccc2)Nc2nnnn2C1c1cccs1` (stereo not drawn): the z-score was -0.104.

`Cc1cccc(NC(=O)CSc2nnc(-c3ccc(S(=O)(=O)N4CCOCC4)cc3)n2C)c1` had a z-score of 1.74.

For `O=C(Cn1cnc2c(nnn2Cc2ccccc2F)c1=O)OCc1ccccc1`, the z-score is -1.07.

The compound `Cc1nn(CCc2n[nH]c(=S)n2-c2ccc(F)c(Cl)c2)c(C)c1[N+](=O)[O-]` displayed a z-score of -0.0853.

`CCCS(=O)(=O)N1CCN(C(=O)CCC2CCCC2)CC1`: the z-score is 0.237.

In the case of `O=C(c1cnc2n(c1=O)CCS2)N1CCCc2ccccc21`, the z-score was -0.0995.

`CC(C)COC(=O)Nc1nnc(SCc2ccccc2F)s1` returned a z-score of -0.083.

The compound `CC(C)NC(=S)N1CCN(S(C)(=O)=O)CC1` yielded a z-score of -0.252.

Consider `COc1ccc(NC2=C(c3ccc(OC)cc3)C(=O)c3ccccc32)cc1`, for which the z-score was -0.135.

Take `CCCC(C(=O)NC1CCCCC1)N(CC1CCCO1)C(=O)CNS(=O)(=O)c1ccc(F)cc1` (stereo not drawn): the z-score is -0.514.

Compound `Nc1nc(C2C(=O)CCCC2=O)cs1` registered a z-score of 0.841.

`CC(=O)COC(=O)CCc1nc2ccccc2[nH]c1=O` had a z-score of -0.286.

Regarding `Cc1nn(-c2ccccc2)c(C)c1C(=O)OCC(=O)NCc1ccco1`, the z-score was -1.38.

With `Fc1cccc(Cl)c1CSc1nnnn1-c1ccc2c(c1)OCO2`, the z-score worked out at 1.06.

With `CS(=O)(=O)N1N=C(c2ccccc2)CC1c1ccc2nccnc2c1` (stereo not drawn), the z-score was 0.159.

`CS(=O)(=O)N1CCN(C(=O)c2c(F)cccc2F)CC1`: the z-score was determined as 0.029.

As to `COc1ccccc1Oc1ccccc1C(=O)O`, the z-score was 0.0102.

In turn, `CCCCCCN1CC(C(=O)OCC)C(=O)C1=O` (stereo not drawn) yielded a z-score of -0.114.

The compound `c1ccc2c(c1)oc1c(NCCCn3ccnc3)ncnc12` had a z-score of -0.0789.

In the case of `COc1ccc(CCNC(=O)Cn2cc(C(F)(F)F)cc(Cl)c2=O)cc1OC`, the z-score was -0.175.

Turning to `O=C(CCNS(=O)(=O)c1cccc2nsnc12)Nc1ccc2c(c1)OCCO2`, the z-score was -1.18.

In turn, `O=C(Nc1ccc2c(c1)CCC2)C1COc2ccccc2O1` (stereo not drawn) registered a z-score of 0.9.

For the compound `Cc1cc(NC(=O)CN2CCN(S(=O)(=O)c3ccc(Cl)cc3)CC2)no1`, the z-score worked out at 0.194.
